Data from article PMC4336329 (PLoS ONE, 2015).
The whole screen tested about 310,000 compounds, of which about 14,000 (4.5%) showed an effect of 50% or more. The effect is printed as a negative number. This is one part of the list.

Molecular target: human ether-à-go-go-related gene (hERG) potassium channel (human, UniProt Q12809)
Test: primary screen, population patch clamp on CHO cells stably expressing hERG
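Further: peak tail current of the secondary pulse compared with the same well before compound.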

Chain of human ether-à-go-go-related gene (hERG) potassium channel (Q12809 whole entry, looked up): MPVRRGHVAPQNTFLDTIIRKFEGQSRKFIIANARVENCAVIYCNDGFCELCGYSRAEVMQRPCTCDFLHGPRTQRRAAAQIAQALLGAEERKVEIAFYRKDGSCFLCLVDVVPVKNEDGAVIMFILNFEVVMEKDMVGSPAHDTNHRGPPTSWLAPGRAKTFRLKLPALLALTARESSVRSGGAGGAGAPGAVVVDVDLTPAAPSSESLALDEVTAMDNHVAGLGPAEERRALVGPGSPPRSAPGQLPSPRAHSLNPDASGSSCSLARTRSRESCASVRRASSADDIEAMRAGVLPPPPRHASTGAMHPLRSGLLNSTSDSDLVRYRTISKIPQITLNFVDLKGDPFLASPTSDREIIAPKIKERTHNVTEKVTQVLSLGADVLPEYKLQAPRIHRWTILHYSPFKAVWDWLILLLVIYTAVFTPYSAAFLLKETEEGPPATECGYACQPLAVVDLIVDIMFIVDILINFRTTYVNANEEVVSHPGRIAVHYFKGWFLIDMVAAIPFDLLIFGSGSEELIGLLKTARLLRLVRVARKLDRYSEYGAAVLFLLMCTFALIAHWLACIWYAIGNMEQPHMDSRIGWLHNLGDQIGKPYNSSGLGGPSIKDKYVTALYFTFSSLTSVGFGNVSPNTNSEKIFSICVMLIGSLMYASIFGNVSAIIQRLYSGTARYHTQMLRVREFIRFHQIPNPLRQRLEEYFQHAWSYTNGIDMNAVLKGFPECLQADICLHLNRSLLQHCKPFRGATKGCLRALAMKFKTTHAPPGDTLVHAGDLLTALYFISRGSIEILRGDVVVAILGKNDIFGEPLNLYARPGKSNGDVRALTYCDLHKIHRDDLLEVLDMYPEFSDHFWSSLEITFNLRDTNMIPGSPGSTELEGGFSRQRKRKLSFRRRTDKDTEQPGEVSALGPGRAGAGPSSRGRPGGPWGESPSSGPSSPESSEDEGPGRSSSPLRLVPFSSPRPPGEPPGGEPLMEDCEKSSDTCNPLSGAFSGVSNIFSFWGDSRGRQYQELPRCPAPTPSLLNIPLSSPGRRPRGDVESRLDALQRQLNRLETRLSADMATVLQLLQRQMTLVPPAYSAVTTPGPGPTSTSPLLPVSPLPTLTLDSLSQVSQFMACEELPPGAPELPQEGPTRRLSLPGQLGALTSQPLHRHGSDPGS

Row | SMILES | hERG current change (%, negative = inhibition) at 10uM [%]
1 | CCCCn1c(O)c(/C(C)=N/NC(=O)Nc2ccccc2)c(=O)[nH]c1=O | 7.7
2 | CC(=O)c1sc(NC(=O)c2ccc(F)cc2)nc1-c1ccccc1 | 2.04
3 | O=C(CN1CCOc2ccccc21)NCc1ccc(F)cc1 | -11
4 | CC(=O)Oc1cc2oc(=O)c3c(c2cc1Cl)CCC3 | 11.4
5 | O=C(c1sc2ccccc2c1Cl)N1CCC2(CC1)OCCO2 | -12.4
6 | Oc1ccc(Nc2nc(-c3ccccc3)nc3ccccc23)cc1 | 0.935
7 | O=C(N/C(=C\c1cccc([N+](=O)[O-])c1)C(=O)N1CCOCC1)c1cccc(Br)c1 | -4.26
8 | CCOC(=O)CSc1n[nH]c(NC(=O)NC(C)C)n1 | 10.6
9 | O=C(NC12CC3CC(CC(C3)C1)C2)N1CCN(S(=O)(=O)c2ccc(Cl)cc2)CC1 | -19.6
10 | CCOc1ccc(/C=C2\SC(=S)N(CCC(=O)O)C2=O)cc1 | 3.03
11 | CN(C)S(=O)(=O)c1ccc(Cl)c(NC(=O)COC(=O)C2CCCO2)c1 (stereo not shown) | 5.01
12 | COc1cc(/C=N\NC(=O)c2ccccc2F)ccc1Oc1ccc([N+](=O)[O-])cn1 | -36.6
13 | Cc1c(C(=O)N2CCN(S(=O)(=O)c3ccc(F)cc3)CC2)oc2ccccc12 | -12
14 | CN1CCN(c2ccccc2NC(=O)c2ccc(Br)o2)CC1 | -67.9
15 | O=C(/C=C/c1ccc(F)cc1)NCCc1ccc2c(c1)OCCO2 | -17
16 | Br.COc1ccc(/C=N/N(C)C2=NCCN2)c(OC)c1OC | 5.63
17 | CCC(=O)Nc1cccc(NC(=O)CSc2nnc(C3CC3)n2C)c1 | -1.38
18 | Cc1nnc(SCc2c(Cl)cccc2Cl)s1 | -4.22
19 | O=C(Cn1cnc2ccccc2c1=O)NCCC(=O)Nc1ccc2c(c1)OCCO2 | 4.96
20 | Cc1ccc(OCC(=O)NCC(=O)n2nc(C)cc2C)cc1 | -0.722
21 | COc1ccc(/C=C(\C#N)C(=O)NCc2ccccc2)cc1O | -13.1
22 | O=C(CCOc1ccccc1)Nc1ccnn1C1CCN(Cc2ccccc2)CC1 | -50

Row | SMILES | hERG current change (%, negative = inhibition) at 10uM [%]
23 | COc1cc(OC)cc(-c2nnc(SCc3cccc(C(=O)O)c3)o2)c1 | 8.29
24 | O=C(COc1ccc(F)cc1)N1c2ccccc2CCc2ccccc21 | 14.3
25 | NC1=NC[C@H](c2ccccc2)N1CCCCC1CCCCC1 | -24.1
26 | COc1ccc(C(C(=O)NCC2CCCO2)N(C(=O)CNC(=O)c2ccco2)c2ccc(C)c(C)c2)cc1OC (stereo not shown) | 9.56
27 | C=CCO/N=C(/CCC)C1=C(N)CC(C)(C)CC1=O | 14.9
28 | CN(c1ccc(OCC(=O)Nc2nc(-c3ccccc3)cs2)cc1)S(=O)(=O)c1ccc(F)cc1 | -0.888
29 | Cc1nc2ccccc2nc1N/N=C/c1ccc(O)cc1 | 12.2
30 | CN(NS(=O)(=O)c1ccc(Cl)cc1)c1nc(C(F)(F)F)nc2ccccc12 | 22.2
31 | O=C(NCCN1C(=O)C2C3C=CC(C3)C2C1=O)Nc1ccc(Br)cc1 (stereo not shown) | -25
32 | COc1cccc(OC)c1NC(=O)c1nc2c(nnn2Cc2ccccc2Cl)c(=O)[nH]1 | -0.301
33 | CCOC(=O)c1cnc2ncnn2c1N | 14.7
34 | CCC(C)c1ccc(OCC(=O)Nc2cccc(C(=O)Nc3ccc(C(=O)O)cc3)c2)cc1 (stereo not shown) | -5.31
35 | N#Cc1ccccc1Sc1ccccc1C(=O)Nc1ccc2ccccc2c1 | 15.8
36 | COCCNC(=O)c1ccc(CS(=O)(=O)c2ccccc2)o1 | -9.11
37 | O=C(/C=C/c1cccc(F)c1)NNC(=O)c1ccncc1 | -4.8
38 | CCOC(=O)C1=C(N)n2c(s/c(=C\c3ccncc3)c2=O)=C(C(=O)OCC)C1c1ccncc1 (stereo not shown) | 22.8
39 | Nc1c(C(=O)Nc2ccc3c(c2)OCCO3)nnn1Cc1ccc(Br)cc1 | -4.24
40 | CCC(C)NC(=O)c1ccc(C2SCC(=O)N2Cc2ccccc2)cc1 (stereo not shown) | 2.6
41 | Cc1cc(C(=O)NCCc2ccc(S(N)(=O)=O)cc2)c(C)o1 | 2.08
42 | CN1C(=O)CC(N2CCN(CC(=O)N3CCCC3)CC2)C1=O (stereo not shown) | 0.953
43 | COc1ccc(C(C)=O)cc1CSc1nnc(SCc2cc(C(C)=O)ccc2OC)s1 | 13.6
44 | CC(=O)Nc1ccc(NC(=O)CCn2cnnn2)cc1 | 18.1

Row | SMILES | hERG current change (%, negative = inhibition) at 10uM [%]
45 | COc1cc(CN(C)CC2CCCN(CCc3cccc(C(F)(F)F)c3)C2)ccc1O (stereo not shown) | -62.8
46 | Cc1nn(Cc2ccc(F)cc2)c(C)c1NC(=O)c1nn(C)cc1Cl | -3.31
47 | Cc1nnc(SCc2cc(=O)[nH]c(Nc3nc(C)c4cc(C)c(C)cc4n3)n2)s1 | 13.7
48 | CCOC(=O)c1c(NC(=O)CCN2C(=O)c3cccc([N+](=O)[O-])c3C2=O)sc(C(=O)OC(C)C)c1C | 13.2
49 | Cc1cc(=O)oc2ccc(OC(=O)CN3C(=O)c4cccc([N+](=O)[O-])c4C3=O)cc12 | 4.86
50 | O=C(O)CCCc1ccc2c(c1)CCc1ccccc1-2 | 16.1
51 | CC1CC(C)CN(c2ncnc3c2cnn3-c2ccc(Cl)cc2)C1 (stereo not shown) | 3.17
52 | COc1cccc(CN2CC(C(=O)NCCc3ccc(C)o3)CCC2=O)c1 (stereo not shown) | 7.18
53 | C=CCN1C(=O)/C(=C/c2cccs2)S/C1=N\S(=O)(=O)c1ccc(F)cc1 | 15.8
54 | Cc1ccc(CNC(=O)CSCC(=O)O)cc1 | 21.6
55 | COc1ccc(/C=C/C(=O)N(c2ccccn2)C2CCCCC2)cc1OC | -6.44
56 | Cc1cc2c(c(N)n1)c(=O)oc1ccccc12 | 13.9
57 | O=C(Nc1ccc([N+](=O)[O-])cc1)c1ccc(Cn2cc([N+](=O)[O-])cn2)cc1 | -31.7
58 | COc1cc2[nH]c(Cl)c([N+](=O)[O-])c2cc1OC | -4.97
59 | O=c1cc[nH]c2cc(Cl)ccc12 | 4.34
60 | COc1ccc(/C=C/C(=O)c2ccc(Cl)s2)cc1O | 1.69
61 | CC1=C(C#N)C(NC(=O)c2ccccc2Cl)(C(F)(F)F)C(=O)N1 (stereo not shown) | -7.75
62 | CC(C)C1Cc2c(sc3ncnc(NN)c23)CO1 (stereo not shown) | 11.7
63 | CC(=O)c1cccc(NC(=O)C2=CC(c3cccs3)=NS(=O)(=O)N2C)c1 | 10.9
64 | CC(C)(CNC(=O)c1cc2ccccc2o1)N1CCOCC1 | -4.05
65 | COc1ccc(NC(=O)CS(=O)c2ccccc2Cl)cc1 (stereo not shown) | 18
66 | CC(C)c1ccccc1NC(=O)c1ccco1 | -13.2

Row | SMILES | hERG current change (%, negative = inhibition) at 10uM [%]
67 | COc1ccc(NC(=O)C2CCCN(S(C)(=O)=O)C2)cc1OC (stereo not shown) | 8.63
68 | CCCn1cc(S(=O)(=O)c2ccccc2)c(=O)c2cc(OCC)ccc21 | -33.6
69 | CCOC(=O)C(CCSC)Nc1nc(Cl)nc(Nc2ccc(Cl)cc2)n1 (stereo not shown) | 10.7
70 | O=CNCCCc1nc2ccccc2n1Cc1ccccc1 | -28.6
71 | CC1(C)CC(NC(=O)c2ccc(Br)o2)CC(C)(C)N1 | 14.7
72 | CC(=O)N(C)c1ccc(NC(=S)NC(=O)/C=C/c2ccco2)cc1 | 5.11
73 | CC(C)(C)C(=O)/C(=C\c1ccc([N+](=O)[O-])cc1)n1cncn1 | -49.6
74 | CC(C)(C)c1ccc(Cn2nnc3c(=O)[nH]c(C4CCN(C(=O)Cc5cccs5)CC4)nc32)cc1 | -4.81
75 | Cc1ccc(CC(=O)Nc2nc3ccccc3s2)cc1 | -1.16
76 | O=C(COc1ccc(Br)cc1)NNC(=S)NC(=O)c1ccccc1[N+](=O)[O-] | 7.77
77 | CC(C)(C)Sc1ccc([N+](=O)[O-])cc1C(=O)Nc1ccncc1 | -22.2
78 | O=C(OCC(=O)N1CCc2ccccc21)c1ccccc1 | 15.7
79 | COc1ccc(-c2ccc(SCC(=O)Nc3nccs3)nn2)cc1OC | 27.1
80 | CC(NC(=O)C(C)N1CCN(S(=O)(=O)c2ccccc2)CC1)c1ccccc1 (stereo not shown) | -7.84
81 | Cc1ccc(-c2nc(C#N)c(NCCc3ccccn3)o2)cc1 | -0.257
82 | O=C(COC(=O)c1cccnc1Cl)NCc1ccc2c(c1)OCO2 | 11.4
83 | O=C(CCCCn1c(=O)[nH]c2ccsc2c1=O)NCCc1ccccc1 | 0.118
84 | CCn1c(SCC(=O)Nc2cccc(NC(=O)c3cccs3)c2)nnc1-c1ccncc1 | -15.1
85 | O=C1CSC(=S)N1c1cccc(Br)c1 | 8.66
86 | Nc1c(C(=O)N/N=C/c2cccnc2)oc2nc(-c3ccco3)cc(-c3ccco3)c12 | -1.33
87 | COc1cccc(-n2nc(C(=O)O)c3ccccc3c2=O)c1 | 6.72
88 | COc1ccc(OCc2nnc(SCC(=O)Nc3nnc(C4CC4)s3)n2C)cc1 | 16.3
